# From PubChem BioAssay AID624417 (National Center for Advancing Translational Sciences (NCATS), 2012)
# “And” between values parts separate entries of the source, which are not always exact repeats. Equal entries are not always repeated. Hit rate of the full screen: of about 410,000 compounds, about 6,400 (1.6%) were called active. The shares of active, inactive and inconclusive entries below differ from those in the screen. Calls follow the shape of the dose curve; as a rule, active = well fitted inhibition curve with a large enough effect; inconclusive = small, poorly fitted or top-dose-only effect; inactive = no such curve, though single readings can be large or run the other way. Potencies of inconclusive entries are doubtful fits and often do not repeat.
# Biological target: Glucagon-like peptide 1 receptor (Homo sapiens) (UniProt P43220)
# Test: qHTS of GLP-1 Receptor Inverse Agonists (Inhibition Mode); also: nearly all actives have a fitted effect of over 55% in size
# Settings: HEK293 GLP-1R CRE-luciferase, luminescence, 24 h, GLP-1R form is constitutively active; activity change, negative = inhibition: at 38.3 µM (top of the series) unless noted
# How it was run: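 Stable HEK293 clone (constitutively active GLP-1R + cAMP-response luciferase); 200 cells/uL plated, 12 h pre-culture, compound 24 hr, 37 deg C/5% CO2; detection reagent 12 min RT; luminescence.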
# % is scaled to controls: 0 for no effect and ±100 for the full control effect; potency is read from the fitted curve at half-maximal effect; tags tell the direction and shape of the fitted curve.
# Chain of UniProt P43220 (P43220 whole entry, looked up): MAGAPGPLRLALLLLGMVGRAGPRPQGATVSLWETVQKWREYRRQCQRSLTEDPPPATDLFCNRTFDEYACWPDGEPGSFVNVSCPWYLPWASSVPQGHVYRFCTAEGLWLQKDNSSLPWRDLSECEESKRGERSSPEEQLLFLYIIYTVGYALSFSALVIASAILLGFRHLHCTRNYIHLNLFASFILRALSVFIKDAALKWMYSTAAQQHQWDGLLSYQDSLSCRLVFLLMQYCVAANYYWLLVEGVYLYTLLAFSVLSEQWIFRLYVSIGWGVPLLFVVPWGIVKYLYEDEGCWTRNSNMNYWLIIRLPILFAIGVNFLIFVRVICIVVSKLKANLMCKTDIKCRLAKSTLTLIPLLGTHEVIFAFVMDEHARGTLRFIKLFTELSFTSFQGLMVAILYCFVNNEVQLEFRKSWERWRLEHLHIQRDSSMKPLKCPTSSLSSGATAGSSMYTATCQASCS
Compound,Potency,"activity change, negative = inhibition"
Cc1ccccc1SCCNC(=O)c1ccccc1Br,"inconclusive: 10 µM [inhibitor, partial curve, poor fit]",
CCOc1ccc(CCNC(=O)CCCc2nnc3n(CCCOC)c(=O)c4sccc4n23)cc1,,inactive: 12.8%
CCCCNC(=S)N1CCN(C(c2ccccc2)c2ccccc2)CC1,active: 8.91 µM,
COc1ccc(N2CCN(C(=O)c3cn(C4CCCCC4)c(=O)c4c3c3ccccc3n4C)CC2)cc1,"inconclusive: 11.2 µM [inhibitor, partial curve, poor fit]",
CCO[C@@H]1OC(C(=O)N2CCN(Cc3ccc4c(c3)OCO4)CC2)=C[C@H](c2ccc(Br)cc2)[C@H]1CCCO,"inconclusive: 17.8 µM [inhibitor, single point]",
O=C(CCNC(=O)C1CCN(S(=O)(=O)c2ccccc2)CC1)Nc1cccc(C(F)(F)F)c1,"inconclusive: 10 µM [inhibitor, partial curve, poor fit]",
COCCCNC(=O)CN1C(=O)COc2ccc(S(=O)(=O)N3CCOCC3)cc21,"inconclusive: 28.2 µM [inhibitor, single point]",
Cc1cccc(CCNS(=O)(=O)c2cnc[nH]2)c1,,inactive: -0.82%
Cc1ccc(-c2csc(N3CCN(c4cc5c(cc4Cl)nc(-c4ccncc4)n5CCN4CCCCC4)CC3)n2)cc1,"inconclusive: 10 µM [inhibitor, partial curve, poor fit]",
COc1cc(/C=N/OCC(=O)NC2CCCCC2C)ccc1OCc1ccc(Cl)cc1 (stereo unspecified),"inconclusive: 7.94 µM [inhibitor, partial curve, poor fit]",
Cn1cc(C(=O)N2CCN(c3cccc(Cl)c3)CC2)c(=O)c2cc(S(=O)(=O)N3CCCC3)ccc21,,inactive: 6.36%
COc1ccc(C)cc1NC(=O)CN1CCCN(S(=O)(=O)c2ccc(Br)cc2)CC1,"inconclusive: 20 µM [inhibitor, single point] and inconclusive: 12.6 µM [inhibitor, single point]",
CCOc1ccc2[nH]c(C(=O)N/N=C/c3ccc(OC)cc3)cc2c1,"inconclusive: 0.794 µM [inhibitor, full curve, poor fit]",
CCCCCCN1C[C@H](O)[C@@H](n2cc(-c3ccc(F)cc3)nn2)C[C@@H]1c1ccc(C)cc1,"inconclusive: 14.1 µM [inhibitor, single point]",
FC(F)(F)Oc1ccc(NC(=S)NCc2ccccc2)cc1,"inconclusive: 28.2 µM [inhibitor, single point]",
CCCOc1ccc(Cn2c(=O)oc3ccc(C)cc32)cc1,"inconclusive: 10 µM [inhibitor, single point]",
Cc1cc(C)c(S(=O)(=O)Nc2ccc(-c3ccc(N4CCCCC4)nn3)cc2)c(C)c1,"inconclusive: 14.1 µM [inhibitor, partial curve, poor fit]",
O=C(c1ccccc1F)N1CCN(c2ccc([N+](=O)[O-])cc2-n2cccc2)CC1,"inconclusive: 28.2 µM [inhibitor, single point]",
CCC1(Cc2ccccc2)NC(=O)c2ccccc2O1 (stereo unspecified),"inconclusive: 14.1 µM [inhibitor, partial curve, poor fit]",
Cc1ccc2c(CN3CCN(Cc4ccc5c(c4)OCO5)CC3)cc(=O)oc2c1C,,inactive: -9.19%
CCOc1ccccc1NC(=O)c1c(NC(=O)Cc2ccccc2)sc2c1CCCC2,,inactive: 5.75%

Compound,Potency,"activity change, negative = inhibition"
Cc1oc(-c2ccc(-c3ccccc3)cc2)nc1CN1CCN(CC(=O)N(C)C)CC1,,inactive: 42.8%
COc1ccc(NC(=O)C2Cc3c(-c4ccc5c(c4)OCO5)ccnc3O2)cn1 (stereo unspecified),"inconclusive: 1.58 µM [inhibitor, full curve, poor fit]",
Cc1cc(C)nc(/N=C(\N)Nc2ccc(OCc3ccccc3)cc2)n1,"inconclusive: 2 µM [inhibitor, full curve]",
Cc1scc(-c2n[nH]c(=S)n2C(C)c2ccccc2)c1C (stereo unspecified),"inconclusive: 28.2 µM [inhibitor, single point]",
O=C(NCc1ccccc1Cl)c1ccccc1Oc1ccccc1,"inconclusive: 28.2 µM [inhibitor, single point]",
COc1cc(C(O)c2nc(-c3cccc(C#N)c3)cs2)ccc1F (stereo unspecified),"inconclusive: 12.6 µM [inhibitor, single point]",
Cn1nnnc1SCC(=O)Nc1nc(-c2ccccc2)c(-c2ccccc2)o1,"inconclusive: 28.2 µM [inhibitor, single point]",
Nc1ccc(N(CCO)CCO)cc1,,inactive: -13.3%
CC(=O)Nc1scc(-c2ccccc2)[n+]1-c1ccc(C)cc1,"inconclusive: 10 µM [inhibitor, single point]",
O=C(COc1ccc(Cl)cc1)N(Cc1ccccc1)c1ccccn1,"inconclusive: 11.2 µM [inhibitor, partial curve, poor fit]",
COCCN(C(=S)Nc1ccccc1C)C(C)c1cccs1 (stereo unspecified),"inconclusive: 28.2 µM [inhibitor, single point]",
Cc1ccccc1OCC(=O)N/N=C/c1cn(C)c2ccccc12,"inconclusive: 28.2 µM [inhibitor, single point]",
COc1ccc(Cl)cc1N(CC(=O)Nc1cccc(SC)c1)S(C)(=O)=O,"inconclusive: 28.2 µM [inhibitor, single point]",
Cc1nc([N+](=O)[O-])c(Sc2nc3ccc([N+](=O)[O-])cc3[nH]2)n1Cc1ccccc1,"inconclusive: 10 µM [inhibitor, partial curve, poor fit]",
CC(=O)NCCc1nc2ccccc2n1CCc1ccccc1,"inconclusive: 11.2 µM [inhibitor, partial curve, poor fit]",
Cc1onc(-c2c(F)cccc2Cl)c1C(=O)c1ccc(F)cc1,"inconclusive: 14.1 µM [inhibitor, single point]",
CCc1ccccc1NC(=O)C/C(C)=N/NC(=O)COc1ccccc1C,"inconclusive: 0.501 µM [inhibitor, full curve, poor fit]",
COc1cc(C(=O)NC(=S)Nc2ccccc2N2CCCC2)cc(OC)c1OC,,inactive: -25.2%
Clc1ccccc1CNc1nc2ccccc2c2nc(-c3ccccc3)nn12,"inconclusive: 8.91 µM [inhibitor, partial curve, poor fit]",
CCOC(=O)c1cc(-c2ccccc2)n(-c2cccc(C(=O)NC(C)CC)c2)c1C (stereo unspecified),"inconclusive: 12.6 µM [inhibitor, partial curve, poor fit]",
CC(OC(=O)c1cccc(S(=O)(=O)N2CCCCC2)c1)C(=O)NC1CCCCC1C (stereo unspecified),"inconclusive: 7.08 µM [inhibitor, partial curve, poor fit]",

Compound,Potency,"activity change, negative = inhibition"
C[C@@]12C(=O)Nc3ccc(Br)cc3C(=O)N1[C@H]1c3cc(Br)ccc3OC[C@@H]1[C@@H]2c1ccccc1,"inconclusive: 5.62 µM [inhibitor, full curve, poor fit]",
CCOC(=O)C1=CCC(C(C)(C)C)N(S(=O)(=O)c2ccc(C)cc2)C1 (stereo unspecified),"inconclusive: 12.6 µM [inhibitor, single point]",
CC1CCCCN1C(=O)CN1CCN(S(=O)(=O)c2ccc(Br)cc2Cl)CC1 (stereo unspecified),"inconclusive: 11.2 µM [inhibitor, partial curve, poor fit]",
COc1ccc(-n2sc3ccccc3c2=O)cc1,"inconclusive: 28.2 µM [inhibitor, single point]",
COCCn1c(=NC(=O)CSC(C)=O)sc2cc(F)ccc21,"inconclusive: 15.8 µM [inhibitor, partial curve, poor fit]",
C/C(CC(=O)Nc1cccc(C(F)(F)F)c1)=N/NC(=O)C(=O)NCCO,"inconclusive: 11.2 µM [inhibitor, partial curve, poor fit]",
CCn1c(CN2CCCCC2)nc2cc(NC(=O)COc3cc(C)ccc3C(C)C)ccc21,"inconclusive: 5.62 µM [inhibitor, full curve, poor fit]",
COc1ccc(Nc2nc(-c3ccccc3)c3cc(Br)ccc3n2)cc1,"inconclusive: 28.2 µM [inhibitor, single point]",
Cc1ccc(N(C)S(=O)(=O)c2ccc(-c3cnc(C4CC4)o3)cc2)cc1,"inconclusive: 1 µM [inhibitor, full curve, poor fit]",
O=C(Nc1ccc(Br)cc1F)c1ccc2nc(CCc3ccccc3)oc2c1,,inactive: -6.93%
Cc1ccc(CN2CCN(CC(=O)N/N=C/c3c[nH]c4ccccc34)CC2)cc1,"inconclusive: 17.8 µM [inhibitor, single point]",
O=C1c2[nH]nc(-c3ccccc3O)c2C(c2cccc(Br)c2)N1Cc1ccncc1 (stereo unspecified),active: 12.6 µM,
Cc1cc(C)c(O)c(CN(C)Cc2cc(Cl)cc(Cl)c2O)c1,"inconclusive: 1.78 µM [inhibitor, full curve, poor fit]",
CC(CN1CCCCC1)NC(=O)c1cc(-c2ccccn2)nc2ccc(Cl)cc12 (stereo unspecified),"inconclusive: 15.8 µM [inhibitor, single point]",
CCOC(=O)c1sc2nc(N3CCOCC3)c3c(c2c1N)CCCC3,,inactive: 31.5%
Cc1ccc(-c2cc(C(=O)N3CCCC3)c3ccccc3n2)s1,"inconclusive: 28.2 µM [inhibitor, single point]",
O=C(CN1CCN(S(=O)(=O)c2ccc3ccccc3c2)CC1)Nc1ccc2c(c1)CCC2,"inconclusive: 28.2 µM [inhibitor, single point]",
COc1ccc(-n2c(Cc3ccccc3)nnc2SCc2nc(-c3ccccc3C)no2)cc1,"inconclusive: 22.4 µM [inhibitor, single point]",
CN1CC=C2C(C#N)=C(N)C(C#N)(C#N)[C@H](c3cccs3)[C@H]2C1,"inconclusive: 2.24 µM [inhibitor, full curve, poor fit]",
